# Experimental data as given in PubChem BioAssay AID2451 (National Center for Advancing Translational Sciences (NCATS), 2010).
# Among all 290,000 compounds or so, about 2,100 (0.72%) were called active. This list was built around the results that the source calls inconclusive (neither active nor inactive); the mix of calls is not that of the screen. The call rests on the fitted dose curve; in most records, active means well fitted inhibition curve with a large enough effect; inconclusive means small, poorly fitted or top-dose-only effect, or effect the other way; inactive means flat fitted curve, though single readings scatter. Potencies beside an inconclusive call are fits to weak or partial responses and may not hold up.
# Biological target: Fructose-bisphosphate aldolase (Giardia intestinalis (strain ATCC 50803 / WB clone C6)) (UniProt A8B2U2)
# Experiment: qHTS Assay for Inhibitors of Fructose-1,6-bisphosphate Aldolase from Giardia Lamblia; further: nearly all actives have a fitted effect of over 55% in size
# Conditions: purified Giardia FBPA; activity, negative = inhibition: at 59.6 µM (top of the series) unless noted
# Procedure, shortened: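 40 nM FBPA preincubated 10 min at RT with compound (up to 57.5 uM final), then substrate plus GAPDH/TPI/NAD/arsenate coupling and diaphorase/resazurin added. Fluorescence read after 20 min at RT, 525/598 nm.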
# On the % scale 0 is the no-effect control and ±100 the full control effect; potency means the concentration at half of the fitted maximal effect; tags describe the fitted curve by direction and shape.
# UniProt A8B2U2, sequence (A8B2U2 whole entry, looked up): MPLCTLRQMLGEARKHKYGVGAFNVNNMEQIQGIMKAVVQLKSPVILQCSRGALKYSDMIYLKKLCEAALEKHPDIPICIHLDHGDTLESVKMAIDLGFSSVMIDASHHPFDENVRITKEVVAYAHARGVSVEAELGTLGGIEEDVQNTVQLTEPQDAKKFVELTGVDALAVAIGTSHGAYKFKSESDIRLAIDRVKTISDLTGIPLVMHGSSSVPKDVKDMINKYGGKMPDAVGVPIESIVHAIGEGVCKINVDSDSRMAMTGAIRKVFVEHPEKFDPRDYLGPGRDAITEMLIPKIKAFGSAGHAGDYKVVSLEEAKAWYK
SMILES,Potency,"activity, negative = inhibition"
Cc1nc2cc3nc(C(F)(F)F)[nH]c3cc2[nH]1,"inconclusive: 3.15 µM [inhibitor, full curve]",
Cc1cc(C(=O)CSc2nc3ccccc3c(=O)n2C)c(C)n1CC1CCCO1 (centres undefined),"inconclusive: 5.61 µM [inhibitor, single point]",
COc1cccc(Cn2c(=O)c(-c3ccc(Cl)cc3)nc3cnc(N(C)C)nc32)c1,inactive,
COc1ccccc1NC1=C(NC(C)=O)C(=O)c2ccccc2C1=O,active: 11.2 µM,
O=C(O)c1ccc(Cn2nnc3sc4c(c3c2=O)CCCC4)cc1,"inconclusive: 19.9 µM [activator, partial curve]",
O=C(NNC(=O)c1ccc2ccccc2c1O)c1ccccc1Cl,"inconclusive: 17.7 µM [inhibitor, single point]",
Cc1cc(O)ccc1Cl,"inconclusive: 15.8 µM [inhibitor, single point]",
CCOC(=O)c1cc(CC)sc1/N=C/C1C(=O)NC(=S)NC1=O,active: 17.7 µM,
COc1cccc(/C=C/C(=O)Nc2ccc(OC)nc2)c1,active: 22.3 µM,
O=C(N/N=C/c1cc([N+](=O)[O-])cc([N+](=O)[O-])c1O)/C(=C\c1cccs1)NC(=O)c1ccccc1,"inconclusive: 17.7 µM [activator, partial curve]",
Cc1ccc(NC(=O)CCNS(=O)(=O)c2ccc3[nH]c(=O)oc3c2)c(C)c1,"inconclusive: 25.1 µM [inhibitor, partial curve]",
N#C/C(=C\c1cccc(OCC(=O)O)c1)c1nc2ccccc2[nH]1,"inconclusive: 20 µM [inhibitor, single point]",
CC(C)(C)n1nnnc1C(c1ccncc1)N1CCN(c2ccc(O)cc2)CC1 (centres undefined),"inconclusive: 14.1 µM [inhibitor, partial curve]",
CCOc1ccc2nc(NC(=O)CSC3=NCCS3)sc2c1,inactive,
Cc1cc(C)nc(/N=C(\N)Nc2ccccc2-c2ccccc2)n1,"inconclusive: 35.4 µM [inhibitor, single point]",
CCn1c(SCC(=O)Nc2ccc(S(=O)(=O)Nc3onc(C)c3C)cc2)nnc1-c1ccccc1,"inconclusive: 7.92 µM [activator, partial curve]",
Cn1nnc(NC(=S)NC(=O)c2cccs2)n1,active: 1.99 µM,
CCSc1nnc(NC(=O)c2ccc(C)cc2)s1,"inconclusive: 12.6 µM [inhibitor, partial curve]",
C=CCNC(=S)/N=c1/ccccn1Cc1ccccc1,active: 14.1 µM,
OCCN(CC#CC(O)(c1ccccc1)C1CCCCC1)CCO (centres undefined),"inconclusive: 22.4 µM [inhibitor, single point]",
O=c1[nH]c(-c2ccccn2)nc(C(F)(F)F)c1Br,"inconclusive: 7.06 µM [inhibitor, single point]",
CN(C(=S)NCCN1CCOCC1)C(c1ccccc1)c1ccccc1,"inconclusive: 17.7 µM [inhibitor, single point]",
COc1cccc(NC(=O)CSc2nc3c(sc4ccccc43)c(=O)n2CCN(C)C)c1,inactive,
COc1ccccc1N1CCN(C(c2cc3ccc(C)cc3[nH]c2=O)c2nnnn2C2CCCC2)CC1 (centres undefined),active: 28.2 µM,

SMILES,Potency,"activity, negative = inhibition"
C=CCc1cccc(/C=N/c2ncccc2O)c1O,"inconclusive: 4.46 µM [inhibitor, full curve]",
Cc1ccccc1OCCn1ccnc1,"inconclusive: 25.1 µM [inhibitor, single point]",
O=C(Nc1ccccc1O)c1ccc2c(c1)C(=O)N(c1ccccc1)C2=O,,inconclusive: 43.1% [activator]
CSc1nc(Cl)c(Cc2ccc(OCC(C)C)cc2)c(N2CCOCC2)n1,inactive,
Cc1cccc(C)c1NC(=O)c1sc(Cl)nc1C,inactive,
CSc1nc2oc3c(c2c2nncn12)CC(C)(C)SC3,"inconclusive: 12.6 µM [inhibitor, partial curve]",
Cc1ccc(NC2=CC(=O)C(=O)c3ccccc32)cc1,active: 5.61 µM,
O=c1[nH]c(=O)c2nnc(N/N=C/c3ccccc3F)nc2[nH]1,"inconclusive: 15.8 µM [inhibitor, partial curve]",
COc1ccc(N=Cc2cc(Cc3ccccc3Cl)cc([N+](=O)[O-])c2O)cc1OC,active: 0.561 µM,
Cc1ccc(C(=O)Nc2cccc3ccccc23)cc1,inactive,
N/C(=N\OC(=O)Cc1ccccc1[N+](=O)[O-])c1ccccn1,inactive,
Cc1ccc(C(=O)Nc2nc3ccccc3c(=O)s2)cc1,"inconclusive: 20 µM [inhibitor, single point]",
CS(=O)(=O)c1sc(C#N)c2c1C(=O)CC(c1ccccc1)C2 (centres undefined),inactive,
COc1cc(C2Nc3cccc4cccc(c34)N2)cc(OC)c1O,"inconclusive: 6.29 µM [inhibitor, partial curve]",
Cc1c(C(=O)c2ccccc2C(=O)O)sc2ccccc12,,inconclusive: 48.4% [activator]
Cc1noc(C)c1-c1ccc2ncnc(NCc3cc(F)cc(F)c3)c2c1,"inconclusive: 15.8 µM [inhibitor, partial curve]",
Cc1ccc(-n2c(C)nc3ccccc3c2=O)c(C)c1,inactive,
CC(C)N1CCc2c(sc(N)c2C#N)C1,"inconclusive: 15.8 µM [inhibitor, partial curve]",
COC(=O)CCCC1=CC2=C(c3ccccc3)C(=O)C(C)(OC(=O)C3CCCC3)C(=O)C2=CN1CC(C)C (centres undefined),"inconclusive: 1.99 µM [inhibitor, full curve]",inactive: -23.1% [at 12.9 µM]
O=C(O)c1ccc(NC2=Nc3cccc4cccc2c34)cc1,inactive,
CCOC(=O)c1nc2nc(C)cc(=O)n2[nH]1,"inconclusive: 22.4 µM [inhibitor, partial curve]",
Cn1cccc1/C=N/NC(N)=S,"inconclusive: 17.7 µM [inhibitor, single point]",
Cc1cc(NCCCN(C)C)n2c(nc3ccccc32)c1C#N,"inconclusive: 7.94 µM [inhibitor, partial curve]",
Cc1c(NC(=O)c2ccc(CN3CCc4ccccc4C3)cc2)c(=O)n(-c2ccccc2)n1C,"inconclusive: 17.7 µM [inhibitor, single point]",
